Molecular target: T1, His-β-catenin (human, UniProt P35222 1-781)
T1 construct: β-catenin, human; the only β-catenin cDNA cloned by the authors is full-length human β-catenin; The bacterial expression vector of the His fusion is not described; source: Escherichia coli BL21, purified
T1 sequence (looked up): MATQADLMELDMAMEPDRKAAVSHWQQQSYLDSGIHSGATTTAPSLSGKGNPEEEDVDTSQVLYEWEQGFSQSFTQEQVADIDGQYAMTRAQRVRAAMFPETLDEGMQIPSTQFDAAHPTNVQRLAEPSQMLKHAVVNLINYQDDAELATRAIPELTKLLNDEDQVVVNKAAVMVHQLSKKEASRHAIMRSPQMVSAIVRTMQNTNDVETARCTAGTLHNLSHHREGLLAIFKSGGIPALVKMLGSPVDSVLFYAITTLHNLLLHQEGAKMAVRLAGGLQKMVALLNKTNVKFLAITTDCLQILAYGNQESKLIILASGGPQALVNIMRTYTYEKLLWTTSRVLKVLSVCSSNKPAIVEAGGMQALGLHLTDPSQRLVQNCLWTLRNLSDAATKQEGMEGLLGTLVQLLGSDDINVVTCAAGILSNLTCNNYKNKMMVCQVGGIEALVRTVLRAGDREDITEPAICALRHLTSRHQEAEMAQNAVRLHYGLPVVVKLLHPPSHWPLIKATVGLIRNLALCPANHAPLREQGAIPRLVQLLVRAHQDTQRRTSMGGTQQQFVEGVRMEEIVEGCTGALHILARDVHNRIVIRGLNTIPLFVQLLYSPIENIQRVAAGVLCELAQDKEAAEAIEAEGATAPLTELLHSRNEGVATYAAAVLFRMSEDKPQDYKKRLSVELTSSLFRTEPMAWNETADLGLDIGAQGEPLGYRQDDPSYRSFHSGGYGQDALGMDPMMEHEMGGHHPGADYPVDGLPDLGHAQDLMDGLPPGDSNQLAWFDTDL
Assay: pull-down; GST pull-down: purified proteins incubated in 20 mM Tris pH 8.0, 150 mM NaCl, 0.5% NP-40, 5 mM EGTA, 1.5 mM EDTA at 4 °C for 4 h, then glutathione-agarose beads for 2 h; western blotting
Conditions: both partners purified

binding result: binds
B1: GST-Twa1 (natural protein)
chain: not shown
notes: Twa1 (Gid8), human, wild type; the only Twa1 cDNA described is full-length human Twa1; The bacterial expression vector of the GST fusion is not described; also called Gid8; wild-type GST-Twa1; source: Escherichia coli BL21, purified

Reference: publication PMC5717399, “Twa1/Gid8 is a β-catenin nuclear retention factor in Wnt signaling and colorectal tumorigenesis” (Cell Research, 2017)
